Measurements reported in PubChem BioAssay (NCATS).
Where “and” joins values, the source holds several entries; their conditions need not be identical. Equal values may be shown once. The list shows a part of the results. These are further read-outs of the screen, such as a control signal, another cell line or another target. No call is given for them. Most of these compounds were active or inconclusive in the main read-out, so they are no random draw. For some of these results: Potencies come from curve fits of mixed quality, noted in brackets.

Assays:
[1] = qHTS Assay for Lipid Storage Modulators (AID 1519); conditions: Drosophila S3 cells, BODIPY lipid droplet/cell ratio, laser cytometry, cells loaded with oleic acid
Summary of the method: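 Cells seeded at 5,000 per well were treated with compounds over a concentration series and loaded with oleic acid (400 uM, as added). Lipid droplet fluorescence (488 nm excitation, 500-530 nm channel) was read by laser-scanning cytometry and normalized to 20 uM Triacsin C.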

[2] = qHTS Assay for Modulators of Human Peripheral Myelin Protein 22 (PMP22) Expression/Activity (AID 1967); conditions: Cell-based PMP22 reporter, dual-color luciferase ratio
Summary of the method: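 Quantitative HTS in a mouse Schwann cell line expressing dual click beetle luciferases: Pmp22 promoter (green) and control EF-alpha promoter (red). After 24h treatment, corrected green/red signal ratio gave %Activity relative to untreated cells.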

[3] = qHTS assay for small molecule antagonists of peroxisome proliferator-activated receptor delta signaling (AID 588535); conditions: HEK293T PPARd-UAS-bla, beta-lactamase FRET ratio, 18 h; 460 nm channel;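 also: cells co-treated with a PPAR-delta agonist as stimulator during compound exposure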
Summary of the method: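 Inhibition of PPAR-delta response element-driven beta-lactamase expression is measured in HEK293T cells exposed to a compound titration series for 18 hrs at 37 C. Half-maximal inhibition comes from Hill equation fitting.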

[4] = Nrf2 qHTS screen for inhibitors: Validation (AID 493153); conditions: A549 ARE-Fluc reporter, 18-24 h; AC50: CellTiter-Fluor fluorescence read, measured here: cytotoxicity CellTiter-Fluor AC50; viability change: measured here: cytotoxicity max response
Summary of the method: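 A549 ARE_Fluc, 5% FBS OPTI-MEM; cpd titration, 18-24 h, 37°C/5% CO2. Read 1: CellTiter-Fluor (Ex 405/Em 525), cytotox. Read 2: luciferase lum, Nrf2 activity.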

[5] = qHTS Validation Assay to Find Inhibitors of Chronic Active B-Cell Receptor Signaling (AID 485345); conditions: ABC-DLBCL cells, chronic BCR signaling reporter; measured here: CBR control luciferase (viability counter)
Summary of the method: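 TMD8 ABC-DLBCL cells with dox-inducible green luciferase–IκBα fusion and red native luciferase; compounds 46 uM–3 nM, 4 h at 37C with doxycycline in 0.5% FBS IMDM. Green/red ratio normalized to basal and 10 uM MG-132.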

[6] = measured here: cell count channel max response
[7] = measured here: cell number channel AC50
[8] = measured here: lipid (BODIPY) channel AC50
[9] = measured here: lipid channel max response
[10] = measured here: green reporter channel AC50, mouse Pmp22 promoter in mouse Schwann cells
[11] = measured here: red reporter channel AC50, EF-alpha promoter control reporter in MSC80 mouse Schwann cells
Tags tell the direction and shape of the fitted curve.

Compound | max response [1, 6] | AC50 [1, 7] | AC50 [1, 8] | max response [1, 9] | AC50 [2, 10] | AC50 [2, 11] | max response [3] [%] | viability change [4] [%] | AC50 [5]
CN1C[C@H](C(=O)N[C@]2(C)O[C@@]3(O)C4CCCN4C(=O)[C@H](Cc4ccccc4)N3C2=O)C[C@@H]2c3cccc4[nH]cc(c34)C[C@H]21 (stereo not given in full) | 54.6% and 42.3% | 2.51 µM [rising, full curve, poor fit] | 2.82 µM [rising, partial curve, poor fit] | 63% and 40.8% | 42.6 µM [falling, partial curve] | 33.8 µM [falling, partial curve] |  |  | 
COc1ccc2c(c1OC)C(=O)OC2C1c2cc3c(cc2CCN1C)OCO3 (stereo not given) | 24.9% and 9.21% and 103% | 5.01 µM [rising, full curve] | 11.2 µM [rising, partial curve] and 631 nM [rising, full curve, poor fit] and 5.01 µM [rising, full curve] | 48.9% and 25.8% and 132% |  |  | 55.4 |  | 
CC(C)C(=O)Nc1ccc([N+](=O)[O-])c(C(F)(F)F)c1 | -26.6% | 2.51 µM [falling, full curve, poor fit] | 2.51 µM [falling, full curve, poor fit] | -25.4% | 75.7 µM [falling, partial curve] | 95.3 µM [falling, single point] |  | 3.89 | 
CN(C)C(=O)C(CCN1CCC(O)(c2ccc(Cl)cc2)CC1)(c1ccccc1)c1ccccc1 | -29% and 45.4% and -67.3% | 25.1 µM [rising, partial curve, poor fit] and 10 µM [falling, full curve, poor fit] | 15.8 µM [falling, single point] and 15.8 µM [rising, partial curve, poor fit] and 10 µM [falling, full curve, poor fit] | -32.6% and 49.2% and -68.9% | 42.6 µM [falling, full curve] | 33.8 µM [falling, full curve] |  |  | 29.1 µM [falling, single point]
